# The campaign covered roughly 43,000 compounds. About 200 (0.47%) were called active. About 12% were inconclusive and are not listed. Calls come from the whole dose curve; as a rule, active = well fitted cell-killing curve with a large enough effect; inconclusive = small, poorly fitted or top-dose-only effect, or effect the other way; inactive = flat fitted curve, though single readings scatter. The list shows a part of the results.
# Assay: Cell viability qHTS assay in S16 Pmp22-F2sN cells; note: nearly all actives have a fitted effect of over 65% in size
# Conditions: S16 Pmp22-F2sN Schwann cells viability, CellTiter-Glo, 24 h; series mostly up to 57.5 µM; activity change, negative = cytotoxicity: at the top concentration
# How it was run: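 Viability was measured by CellTiter-Glo luminescence (15 min, room temperature). This followed 24 h at 37 °C of compound exposure (23 nL pin transfer) in S16 Pmp22-F2sN Schwann cells, 500-1,000 per well.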
# % is set by controls: 0 for no effect and ±100 for the full control effect.
row,SMILES,"activity change, negative = cytotoxicity"
1,O=C(CN1C=NS(=O)(=O)c2ccccc21)Nc1ccccc1F,inactive: 1.68%
2,CCCNC(=O)C1CCC(Cn2c(=O)c3sccc3n(CC(=O)NCc3ccccc3)c2=O)CC1 (stereo not drawn),inactive: 5.9%
3,COc1ccc(N2C(=O)CS(=O)(=O)C23C(=O)N(Cc2ccccc2F)c2ccccc23)cc1Cl (stereo not drawn),inactive: 2.29%
4,Cc1nn(C(C)C(=O)N2CCN(c3ccc(F)cc3)CC2)c(=O)c2c1sc1ccccc12 (stereo not drawn),inactive: 1.75%
5,COc1ccc(Br)cc1CNC(=O)c1cc(=O)[nH]c2ccc(S(=O)(=O)N3CCCCC3C)cc12 (stereo not drawn),inactive: -11.9%
6,COc1ccc(OC)c(CNS(=O)(=O)c2ccc3c(c2)oc(=O)n3C)c1,inactive: -4.57%
7,COc1ccc(-c2nc3ccccc3o2)cc1NC(=O)COc1ccc(C)c(C)c1,inactive: 24.9%
8,Cc1cccc2nc(Cn3c(=O)n(-c4ccc(Cl)cc4)c(=O)c4c5c(sc43)CCC5)cc(=O)n12,inactive: 4.12%
9,CCOc1ccc(C(=O)Nc2cccc(C(=O)OCc3cc(=O)n4cc(C)sc4n3)c2)cc1,inactive: -0.618%
10,O=C(NCC(c1cccnc1)N1CCN(c2ccccc2F)CC1)c1ccc(F)cc1 (stereo not drawn),inactive: -0.795%
11,CSCCC(NS(=O)(=O)c1ccc2c(c1)oc(=O)n2C)C(=O)Nc1ccc(F)c(Cl)c1 (stereo not drawn),inactive: -4.87%
12,Cc1cccc(NC(=O)c2cnc3sc(N4CCCC4)nn3c2=O)c1C,inactive: -5.39%
13,COc1ccc(NC(=O)c2c(NCc3cccc(F)c3)sc3c2CCC3)c(OC)c1,inactive: -24.1%
14,CCCCOc1ccc(C2=NC(c3cccs3)=Nc3ccc(OC)cc3N2)cc1,inactive: 0.0525%
15,COc1cccc2sc(N(Cc3cccnc3)C(=O)c3ccco3)nc12,inactive: -28.1%
16,Cc1nn(C)c(C)c1S(=O)(=O)N(CC(=O)NCCc1ccc(Cl)cc1)c1ccc(C(C)C)cc1,inactive: 1.72%
17,Cc1ccccc1C(=O)Nc1ccc(S(=O)(=O)N2CCC(c3nc4ccccc4s3)CC2)cc1,inactive: 1.3%
18,COc1ccc(C)cc1NC(=O)C(=O)NCCc1sc(-c2cccc(C)c2)nc1C,inactive: 15.9%
19,Cc1cc(C)cc(NC(=O)Cc2csc(COc3cccc(C)c3)n2)c1,inactive: -5.02%
20,CC(=O)c1ccc(NC(=O)Cn2c(=O)cc(C)c3c(C)nn(-c4cccc(F)c4)c32)cc1,inactive: 6.67%
21,Cc1c(C)c2c(cc(C)c3c(-c4ccc(Br)cc4)coc32)oc1=O,inactive: 4.84%

row,SMILES,"activity change, negative = cytotoxicity"
1,CCOC(=O)c1cccc(NC(=O)CCn2c(=O)oc3ccccc32)c1,inactive: 22.1%
2,CCC(Oc1ccccc1)C(=O)Nc1cccc(OCc2cc(=O)n3cccc(C)c3n2)c1 (stereo not drawn),inactive: -17.4%
3,Cc1ccc(CSc2nnc([C@@H](N)C(C)C)o2)cc1,inactive: -6.53%
4,Cc1ccc(C2N=C(N)Nc3nc4ccccc4n32)cc1 (stereo not drawn),inactive: -0.779%
5,CCN(CC)c1ccc(C(=O)NCc2nc3cccnc3n2Cc2ccc(C)cc2)cc1,inactive: -13.6%
6,Cc1cccc(-c2nc3c4c(-c5ccccc5)c(-c5ccccc5)oc4ncn3n2)c1,inactive: 2.99%
7,Cc1cccc(NC(=O)Cn2cc(S(=O)(=O)N3CCCC3)c(S(=O)(=O)N3CCCC3)c2)c1C,inactive: 0.557%
8,CCOC(=O)c1c(C)[nH]c(C)c1S(=O)(=O)NCC(=O)Nc1cccc(SC)c1,inactive: -10.6%
9,CCC1CCc2nc3sc(C(=O)Nc4cccc(F)c4)c(N)c3cc2C1 (stereo not drawn),inactive: -5.22%
10,COc1cccc(NC(=O)CSc2nc(C)c(Cc3ccccc3)c(=O)[nH]2)c1,inactive: 1.4%
11,Cc1cccn2c(=O)cc(CSc3nnc(NC(=O)C(C)C)s3)nc12,inactive: 1.24%
12,CN(C)CCNC(=O)c1ccc2nc(Cc3ccccc3)oc2c1,inactive: -4.15%
13,Cc1ccc(Cl)cc1N1CCN(C(=O)c2sc3nc4n(c(=O)c3c2C)CCC4)CC1,inactive: -3.45%
14,CCN(CC)C(=O)Cn1cc(SCC(=O)Nc2cc(OC)ccc2OC)c2ccccc21,inactive: -7.48%
15,COc1ccc(Cl)cc1NC(=O)CSc1cc(C)[nH]c(=O)n1,inactive: -19.9%
16,O=C(NCc1ccc(Cl)cc1)C1CCN(S(=O)(=O)c2ccc(F)cc2)CC1,inactive: 9.72%
17,CSc1ccc(CCNC(=O)c2c(C)nn(-c3ccc(F)cc3)c2-n2cccc2)cc1,inactive: -13.5%
18,CCC(C)n1c(SCc2ccc(F)cc2Cl)nc2ccsc2c1=O (stereo not drawn),inactive: 2.93%
19,Cc1ccc(CSc2nc3ccc(NC(=O)CC(C)C)cc3s2)cc1,inactive: -0.702%
20,CCOC(=O)c1noc2ncn(Cc3ccc([N+](=O)[O-])cc3)c(=O)c12,inactive: -13.7%
21,COc1ccc(C(=O)NCC(c2ccc(N(C)C)cc2)N2CCOCC2)cc1 (stereo not drawn),inactive: -0.705%

row,SMILES,"activity change, negative = cytotoxicity"
1,CCC(CC)C(=O)Nc1ccc2nc(SCC(=O)N3CCOCC3)sc2c1,inactive: 16.7%
2,Cc1ccccc1C(=O)Nc1sc2c(c1C(=O)N1CCCCC1)CCC(C(C)(C)C)C2 (stereo not drawn),inactive: -0.989%
3,COc1ccccc1N1CCN(c2ncc3c(n2)CCN(Cc2ccc(C)s2)C3)CC1,inactive: -4.37%
4,O=c1oc2ccccc2cc1-c1nc(-c2cccc(Cl)c2)cs1,inactive: 8.4%
5,COc1ccc(Cl)cc1NC(=O)CSc1nc(-c2cccs2)cc(C(F)(F)F)n1,inactive: 7.37%
6,Cc1ccccc1CNC(=O)CN1CCSc2ccccc21,inactive: 11.6%
7,Nc1nc2nc(-c3ccccc3)cc(=O)n2[nH]1,inactive: 12.1%
8,CCc1ccccc1-n1c(SCC(=O)Nc2ccc(C)cc2)nc2n[nH]c(C)c2c1=N,inactive: -6.95%
9,O=C(c1ccc2c(c1)N(Cc1ccccc1Cl)C(=O)c1ccccc1S2)N1CCCC1,inactive: -1.1%
10,CCCCOC(=O)c1ccc(NC(=O)c2ccc3c(c2)CCCN3S(C)(=O)=O)cc1,inactive: -18.9%
11,COc1ccc(NC(=O)CN2CCCN(Cc3ccccc3)S2(=O)=O)cc1,inactive: 1.77%
12,Cc1ccc(NC(=O)C2CCN(S(=O)(=O)c3ccc4c(c3)CCCC(=O)N4)CC2)c(Br)c1,inactive: 2.91%
13,Fc1ccc(CNc2nc(-c3ccc(Cl)cc3)cc(C(F)(F)F)n2)cc1,inactive: 22.6%
14,Cc1cccc(NS(=O)(=O)c2ccc3c(c2)n(C)c(=O)n3C)c1C,inactive: 0.286%
15,O=C(CSc1nnc(CNC(=O)c2ccccc2)n1-c1ccc(F)cc1)Nc1ccccc1F,inactive: 10.4%
16,O=C(CC1NCCNC1=O)Nc1ccc(F)c(Cl)c1 (stereo not drawn),inactive: 13.8%
17,Cc1nn(-c2ccc(F)cc2)c(-n2cccc2)c1C(=O)N1CCCCC1C (stereo not drawn),inactive: 17.5%
18,Cc1cc(NC(=O)c2oc3c(c2C)-c2[nH]ncc2CC3)ccc1Br,inactive: -20.8%
19,Cc1cc(=O)n2nc(N3CCC(C(=O)NCCCOC(C)C)CC3)sc2n1,inactive: 27.7%
20,CCC(C(=O)Nc1cc(-c2cn3cccnc3n2)ccc1C)c1ccccc1 (stereo not drawn),inactive: 2.97%
21,COc1ccccc1N1CCN(S(=O)(=O)c2ccc3c(c2)CCCN3C(C)=O)CC1,inactive: -26.8%

# Reference: PubChem BioAssay AID1508642 (National Center for Advancing Translational Sciences (NCATS), 2021)
